Laboratory results reported in the supplement of paper PMC10369915.
The other results are listed elsewhere or left out. No stated cut-off is given here; in the data, active = 3.2 or more and inactive = the rest. The signal is at background level for most entries.

biological target: SHP2 C-SH2 domain E139D; assay: enrichment score (SH2-bound / input frequency) (ratio); bacterial display of known human phosphotyrosine sites (pTyr-Var adds point mutants) read by sequencing; higher = stronger binding; tyrosines were phosphorylated by kinases first; details: peptide library: pTyr-Var
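Further: displayed peptides selected on beads carrying the immobilized SH2 domain, with library peptides lacking any tyrosine serving as negative controls.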

Binder	enrichment score
IRTIDYRYTVC [IDS_Y497_W502C]	inactive: 0.933
FLAVGYHQPHI [IDS_Y225_K227Q]	inactive: 1.65
FLAVGYHKPRI [IDS_Y225_H229R]	inactive: 2.55
IGSHAYGDQFR [IDH1_Y135_R132S_YF]	inactive: 0.733
FLAVGYHKPFI [IDS_Y225_H229Y_YF]	inactive: 2.18
IKIMGYSIRTI [IDS_Y490]	inactive: 1.55
RIPFRYPKEFQ [IDS_Y234_H229R]	inactive: 0.442
FLAVGYHKPYI [IDS_Y225_H229Y]	inactive: 1.48
QTEGEYSSLEH [IDH3B_Y171]	inactive: 0.375
FLAVGYHKPHI [IDS_Y225]	inactive: 2.69

biological target: SHP2 C-SH2 domain wild-type; assay: as above; details: peptide library: pTyr-Var

Binder	enrichment score
IRTIDYRYTVC [IDS_Y497_W502C]	inactive: 1.02
FLAVGYHQPHI [IDS_Y225_K227Q]	inactive: 1.86
FLAVGYHKPRI [IDS_Y225_H229R]	inactive: 2.23
IGSHAYGDQFR [IDH1_Y135_R132S_YF]	inactive: 0.64
FLAVGYHKPFI [IDS_Y225_H229Y_YF]	inactive: 1.82
IKIMGYSIRTI [IDS_Y490]	inactive: 1.64
RIPFRYPKEFQ [IDS_Y234_H229R]	inactive: 0.322
FLAVGYHKPYI [IDS_Y225_H229Y]	inactive: 1.54
QTEGEYSSLEH [IDH3B_Y171]	inactive: 0.517
FLAVGYHKPHI [IDS_Y225]	inactive: 2.43

biological target: SHP2 N-SH2 domain L43F; assay: as above; details: peptide library: pTyr-Var

Binder	enrichment score
IRTIDYRYTVC [IDS_Y497_W502C]	inactive: 0.826
FLAVGYHQPHI [IDS_Y225_K227Q]	inactive: 1.65
FLAVGYHKPRI [IDS_Y225_H229R]	inactive: 2.01
IGSHAYGDQFR [IDH1_Y135_R132S_YF]	inactive: 0.828
FLAVGYHKPFI [IDS_Y225_H229Y_YF]	inactive: 2
IKIMGYSIRTI [IDS_Y490]	inactive: 1.53
RIPFRYPKEFQ [IDS_Y234_H229R]	inactive: 0.427
FLAVGYHKPYI [IDS_Y225_H229Y]	inactive: 1.86
QTEGEYSSLEH [IDH3B_Y171]	inactive: 0.37
FLAVGYHKPHI [IDS_Y225]	inactive: 2.81

biological target: SHP2 N-SH2 domain T42A; assay: as above; details: peptide library: pTyr-Var

Binder	enrichment score
IRTIDYRYTVC [IDS_Y497_W502C]	inactive: 1.18
FLAVGYHQPHI [IDS_Y225_K227Q]	inactive: 2.04
FLAVGYHKPRI [IDS_Y225_H229R]	inactive: 1.99
IGSHAYGDQFR [IDH1_Y135_R132S_YF]	inactive: 0.63
FLAVGYHKPFI [IDS_Y225_H229Y_YF]	active: 4.15
IKIMGYSIRTI [IDS_Y490]	inactive: 1.65
RIPFRYPKEFQ [IDS_Y234_H229R]	inactive: 0.353
FLAVGYHKPYI [IDS_Y225_H229Y]	inactive: 2.58
QTEGEYSSLEH [IDH3B_Y171]	inactive: 0.531
FLAVGYHKPHI [IDS_Y225]	inactive: 2.02

biological target: SHP2 N-SH2 domain T52S; assay: as above; details: peptide library: pTyr-Var

Binder	enrichment score
IRTIDYRYTVC [IDS_Y497_W502C]	inactive: 0.935
FLAVGYHQPHI [IDS_Y225_K227Q]	inactive: 1.83
FLAVGYHKPRI [IDS_Y225_H229R]	inactive: 2.35
IGSHAYGDQFR [IDH1_Y135_R132S_YF]	inactive: 0.773
FLAVGYHKPFI [IDS_Y225_H229Y_YF]	inactive: 2.07
IKIMGYSIRTI [IDS_Y490]	inactive: 1.64
RIPFRYPKEFQ [IDS_Y234_H229R]	inactive: 0.641
FLAVGYHKPYI [IDS_Y225_H229Y]	inactive: 2.06
QTEGEYSSLEH [IDH3B_Y171]	inactive: 0.368
FLAVGYHKPHI [IDS_Y225]	inactive: 2.66

biological target: SHP2 N-SH2 domain wild-type; assay: as above; details: peptide library: pTyr-Var

Binder	enrichment score
IRTIDYRYTVC [IDS_Y497_W502C]	inactive: 0.937
FLAVGYHQPHI [IDS_Y225_K227Q]	inactive: 1.75
FLAVGYHKPRI [IDS_Y225_H229R]	inactive: 2.36
IGSHAYGDQFR [IDH1_Y135_R132S_YF]	inactive: 0.794
FLAVGYHKPFI [IDS_Y225_H229Y_YF]	inactive: 2.26
IKIMGYSIRTI [IDS_Y490]	inactive: 1.97
RIPFRYPKEFQ [IDS_Y234_H229R]	inactive: 0.483
FLAVGYHKPYI [IDS_Y225_H229Y]	inactive: 1.73
QTEGEYSSLEH [IDH3B_Y171]	inactive: 0.423
FLAVGYHKPHI [IDS_Y225]	inactive: 2.56
